Experimental data: PubChem BioAssay AID463173 (ICCB-Longwood Screening Facility, Harvard Medical School, 2010)
The campaign covered roughly 52,000 compounds. About 1,700 (3.3%) were called active. Cut-off read from the data, not from the text of the source: active = survival mostly below about 52% (no sharp cut-off); inactive = mostly above about 56%. The list shows a part of the results.

Each compound was assayed on Wild type (assay: growth inhibition of S. aureus wild type versus tarO mutant, primary screen, teichoic acid synthesis inhibitors, RN4220, OD600 (AID 463173)). Conditions: S. aureus RN4220 wild type/DeltatarO growth, OD600, 18 h, stronger effect = lower value, screened at 18.75 µg/mL (by protocol).
In the case of `O=C(NCC(c1ccc2c(c1)OCO2)N1CCOCC1)C(=O)Nc1ccccc1` (stereo not drawn), the survival is reported as inactive: 88%. `C=CCc1cccc2cc(C(=O)NCCc3c(C)[nH]c4c(C)cccc34)c(=O)oc12` was tested, and the survival was inactive: 83%. `C=CCN1CCN(C(c2ccccc2)c2nnnn2CCC(C)C)CC1` (stereo not drawn) was tested, and the survival was inactive: 99%. With `CNc1ccc(-c2nc(-c3ccco3)no2)cc1[N+](=O)[O-]` the survival was inactive: 83%. With `CC(=O)Oc1cccc(NC(=O)CC2SC(N)=NC2=O)c1` (stereo not drawn) the survival was inactive: 104%. In the case of `Cc1ccccc1NC(=O)c1ccc2c(O)c(S(=O)(=O)c3ccccc3)c(=O)[nH]c2c1`, the survival is reported as inactive: 88%. In the case of `CCOC(=O)N1CCC(NC(=O)c2cnn(-c3ccc(F)cc3F)c2C2CCN(C(=O)OC(C)(C)C)CC2)CC1`, the survival is reported as inactive: 82%. `CC(C)NC(=O)c1cc(-c2ccccc2)on1` was tested, and the survival was inactive: 87%. `Cc1ccc(S(=O)(=O)Nc2cc3c(cc2C)n(C)c(=O)c(=O)n3C)c(C)c1` was tested, and the survival was inactive: 64%. For `Cc1cc(C)cc(Nc2cc(C(=O)NC3CCC(C)CC3)c3ccccc3n2)c1` (stereo not drawn), the survival was inactive: 125%. For `COc1ccc(CCNC(=O)c2c(C)oc3ncnc(N4CCOCC4)c23)c(OC)c1`, the survival was inactive: 75%. In the case of `O=C(Cn1c(=O)c(C(F)(F)F)nc2ccccc21)Nc1cccc(Br)c1`, the survival is reported as inactive: 124%. In the case of `CCCN1C(C(=O)c2ccccc2)=C(OC(=O)c2ccc(OC)cc2)c2ccccc2S1(=O)=O`, the survival is reported as inactive: 81%. With `Cn1nnnc1SCCCNCc1ccc(-c2ccc(F)c(Cl)c2)o1` the survival was inactive: 77%. For `CCc1nc(-c2cc(S(=O)(=O)N3CCN(c4ccccc4F)CC3)ccc2OC)no1`, the survival was inactive: 77%. For `CN(Cc1ccc(F)cc1)S(=O)(=O)c1nnc(NC(=O)c2ccccc2Cl)s1`, the survival was inactive: 80%. With `Cc1cc(=O)n(CC(=O)NCc2ccc(OC(C)C)cc2)c2c1c(C)nn2-c1cccc(F)c1` the survival was inactive: 73%. For `CCc1ccc(NC(=O)CN2C(=O)CCSc3ccccc32)cc1`, the survival was inactive: 86%. `Cc1ccc(CNC(=O)C2CCCN(S(=O)(=O)c3cn(C)cn3)C2)cc1` (stereo not drawn) was tested, and the survival was inactive: 75%. For `O=C(NCCc1ccccc1)c1ccc(CS(=O)(=O)Cc2ccccc2Cl)o1`, the survival was inactive: 79%. In the case of `Cc1cc(C)cc(NS(=O)(=O)c2ccc(N3CCCCS3(=O)=O)cc2)c1`, the survival is reported as inactive: 71%. In the case of `C=COCCn1c(-c2nonc2N)nc2ccccc21`, the survival is reported as inactive: 113%. `CNC(=O)NCCN1CCCC1=O` was tested, and the survival was inactive: 96%. `O=c1c(N2CCc3ccccc3C2)csc2ccc(Cl)cc12` was tested, and the survival was inactive: 65%. For `CC(C)Cc1nn2c(=O)cc(COC(=O)c3ccc(NC(=O)CCc4ccccc4)cc3)nc2s1`, the survival was inactive: 73%. With `Cc1ccc(NC(=O)C(C)Sc2nc(-c3ccccc3)c(C#N)c(=O)[nH]2)c(C)c1` (stereo not drawn) the survival was inactive: 86%. `CCOc1ccc(-c2nnn(CC(=O)NC3CCCCC3)n2)cc1` was tested, and the survival was inactive: 94%. For `O=C(Nc1nnc(S(=O)(=O)N2CCOCC2)s1)c1ccccc1F`, the survival was inactive: 93%. `CCOc1cc(CN2CCN(S(=O)(=O)c3ccc(C)cc3)CC2)ccc1OC` was tested, and the survival was inactive: 134%. With `COc1ccc(/C=C/C(=O)Nc2sc(C)c(C)c2C(=O)O)cc1` the survival was inactive: 89%. For `COc1ccc(Nc2c(-c3ccc(N4CCOCC4)cc3)nc3ncccn23)cc1OC`, the survival was inactive: 79%. `CC(C)c1cnc2c(c1SCC(=O)N1CCCCC1)c(=O)n(C)c(=O)n2C` was tested, and the survival was inactive: 153%. `CCn1c(=O)sc2cc(NS(=O)(=O)c3ccc(C)cc3)ccc21` was tested, and the survival was inactive: 71%. In the case of `CC(=O)Nc1ccc(NC(=O)c2ccc3c(c2)NC(=O)c2ccccc2S3)cc1`, the survival is reported as inactive: 138%. `CCOC(=O)N1CCc2c(sc3c2c(=O)n(Cc2ccccc2)c(=O)n3CC(=O)Nc2ccc(C)cc2C)C1` was tested, and the survival was inactive: 90%. For `CCc1ccc2c(c1)NC(c1ccc(C)cc1)=NC(c1cccs1)=N2`, the survival was inactive: 64%. `CC(C)(C)C(=O)NC1CCN(CC(=O)N(C2CCCCC2)C2CCCCC2)CC1` was tested, and the survival was inactive: 104%. `COC(=O)c1cccc2c1NC(c1cccnc1)C1CC=CC21` (stereo not drawn) was tested, and the survival was inactive: 111%. `CCc1ccccc1N(C)C(=O)c1cn(-c2cccc(OC)c2)c(=O)c2ccccc12` was tested, and the survival was inactive: 76%. In the case of `CCc1ccc(NC(=O)Cn2nnc(C(=O)NCc3ccc(C)cc3)c2N)cc1`, the survival is reported as inactive: 69%. With `CC1CC(NS(=O)(=O)c2cccs2)CC(C)(C)C1` (stereo not drawn) the survival was inactive: 106%. `O=S(=O)(c1ccc(Cl)c(Cl)c1)N1CCCCC1` was tested, and the survival was inactive: 116%. In the case of `O=C(Nc1ccc(F)cc1F)C1CCN(S(=O)(=O)c2ccc3[nH]c(=O)ccc3c2)CC1`, the survival is reported as inactive: 88%. `O=C(CCc1nc2cccnc2n1-c1ccccc1)Nc1ccc(Cl)c(Cl)c1` was tested, and the survival was inactive: 66%. With `O=C(OCc1ccccc1)Sc1nnc(-c2ccccc2Cl)o1` the survival was inactive: 78%. `CC1(C(=O)NC2CCCCC2)Cc2ccccc2C(=O)N1Cc1ccccc1Cl` (stereo not drawn) was tested, and the survival was inactive: 38%. With `COc1cc(NC(=O)CCc2nc3cccnc3n2Cc2cccs2)cc(OC)c1OC` the survival was inactive: 83%. `CCc1ccc(OCc2nc(-c3ccc(OC)c(OC)c3)no2)c(Br)c1` was tested, and the survival was inactive: 38%. `CC(=O)NC1C(=O)N(c2ccccc2)N=C1C` (stereo not drawn) was tested, and the survival was inactive: 112%. For `CCOc1ccc(C(=O)NCC(c2ccc3c(c2)OCO3)N2CCOCC2)cc1` (stereo not drawn), the survival was inactive: 49%. For `CN(C)c1ccc(C2C=C(c3ccccc3)Nc3nnnn32)cc1` (stereo not drawn), the survival was inactive: 66%. With `CCc1cccc(NC(=O)C2CCCN(c3ncccn3)C2)c1` (stereo not drawn) the survival was inactive: 105%. With `CC(=O)c1ccc(N2C(=O)N(Cc3ccccc3C#N)c3ccccc3S2(=O)=O)cc1` the survival was inactive: 81%. `Cc1c(C(=O)Nc2ccc(F)c(Cl)c2)oc2ccc(S(=O)(=O)N(C)C3CCCCC3)cc12` was tested, and the survival was inactive: 99%. In the case of `Cc1ccc(-n2ncc(C(=O)Nc3ccc4c(c3)OCO4)c2C2CCN(C(=O)OC(C)(C)C)CC2)c(C)c1`, the survival is reported as inactive: 128%. With `COc1cc(-c2noc(-c3ccc(NCc4ccco4)c([N+](=O)[O-])c3)n2)cc(OC)c1OC` the survival was inactive: 78%. With `Cc1oc2ccc(O)c(CN3CCCCC3)c2c1C(=O)Nc1cccc(C(F)(F)F)c1` the survival was inactive: 69%. In the case of `Cc1cn2c(=O)cc(COc3ccc(NC(=O)c4ccccc4C)cc3)nc2s1`, the survival is reported as inactive: 138%.
